The series concerns the molecule itself. The series is described as follows: self-assembly of fusion trimers; negative-stain TEM of E. coli pellet. The procedure: Synthetic genes of each fusion were obtained and protein was expressed in Escherichia coli cells using a standard T7 based expression vector (Table 2). The protein expression was verified by sodium dodecyl sulfate polyacrylamide gel electrophoresis (SDS-PAGE) after separation of the soluble and insoluble cell portions. Samples of observed protein in the cellular pellets were analyzed for array formation by negative-stain Transmission Electron Microscopy (TEM). […] It is worth noting that 5/7 of the remaining fusions either shared a similar sequence and unknown but potentially similar structures (2 unpublished binding proteins) or were either the same molecular weight or much larger than the p3Z-42 monomer protein (3 proteins between ˜25-35 kDa).

B1: p3Z-42-Spycatcher fusion (designed binder)
chain: MGAMVDTLSGLSSEQGQSGDMTIEEDS[about 80 residues not shown]GKATKGDAHIGSGSGGMHNNRLQLSRLERVYQSEQAEKLLLAGVMLRDPARFDLRGSLTHGRDVEIDTNVIIEGNVSLGNRVKIGTGCVIKNSAIGDDCEISPYTVVEDAVLAAACTIGPFARLRPGAVLLEGAHVGNFVEMKKAVLGKGSKAGHLTYLGDAAIGDNVNIGAGTITCNYDGANKFTTIIGDDVFVGSDTQLVAPVSVGKGATIAAGTTVTRNVGANALAISRVPQTQKEGWRRPVKKK
notes: Used as a 2D array in E. coli pellet material; also called p3Z-42-SC; p3Z-42-Spycatcher array
With B1, the binding result was “binds”.

For the origin of these results see patent US20160369264A1 (HOWARD HUGHES MEDICAL INSTITUTE, published 2016).
